This is an account of results in PubChem BioAssay AID1346428 (National Center for Advancing Translational Sciences (NCATS), 2018).

Structures are written as SMILES. The campaign covered roughly 48,000 compounds. About 1,200 (2.5%) were called active. Inconclusive results (about 2%) are left out.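 The calls were made as follows: active = activation of at least 60% and not above a set upper limit (about 1 call in 100 departs from these limits); inconclusive = activation of 40% to 60%, or above that upper limit; inactive = activation under 40%.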 This is one part of the list.

In the experiment the target is Probable G-protein coupled receptor 32 (Homo sapiens) (UniProt O75388). Nature of the experiment: qHTS for Agonists of Human Resolvin D1 Receptor DRV1. Also: 0% is about no effect. To be noted: CHO-K1 GPR32 beta-arrestin PathHunter luminescence, 90 min; at 76.9 µM; hits give high values; zero percent set by DMSO-only wells. The method in brief: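 Agonism was scored as beta-arrestin recruitment to ProLink-fused GPR32 in stably transfected CHO-K1 cells, giving a chemiluminescent beta-Gal signal; compounds were incubated 90 min at 37 °C.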
Chain of UniProt O75388 (O75388 whole entry, looked up, the tested form may be a part): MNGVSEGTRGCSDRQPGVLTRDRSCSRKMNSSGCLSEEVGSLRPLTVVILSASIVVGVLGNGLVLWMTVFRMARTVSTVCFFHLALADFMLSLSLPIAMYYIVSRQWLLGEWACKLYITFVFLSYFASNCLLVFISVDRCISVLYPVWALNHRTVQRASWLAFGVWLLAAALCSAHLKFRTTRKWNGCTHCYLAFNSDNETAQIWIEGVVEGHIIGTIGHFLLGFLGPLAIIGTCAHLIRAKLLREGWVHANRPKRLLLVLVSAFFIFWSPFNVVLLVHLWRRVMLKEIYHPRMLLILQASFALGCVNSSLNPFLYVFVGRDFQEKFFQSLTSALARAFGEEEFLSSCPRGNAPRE
For orientation: Quantitative high-throughput screening tests each substance at several concentrations.
Take `Cc1ccc(C(=O)N2CCc3cc(CNC(=O)c4ccc(Br)cc4)ccc32)cc1`: the activation was inactive: -35%.

Consider `O=S(=O)(c1ccc(-c2cc(C(F)(F)F)on2)s1)N1CCN(c2ccccc2)CC1`, for which the activation is inactive: -10.6%. To `CS(=O)(=O)NCC(c1ccco1)N1CCN(c2ccc(F)cc2)CC1` (stereo unspecified) belongs inactive: -16.8%; to `COCCNC(=O)CCn1c(=O)c2cc(OC)c(OC)cc2n(CC(=O)Nc2ccccc2C)c1=O`, inactive: -1.91%; to `Cc1cccc(C)c1NC(=O)C(=O)NCC(c1ccc2c(c1)OCO2)N1CCOCC1` (stereo unspecified), inactive: -10.3%. To `CCOC(=O)c1cnc2c(Cl)cc(Cl)cc2c1Nc1cc(C(=O)O)ccc1C` belongs inactive: 12.5%.

`COc1ccc(S(=O)(=O)N2CCN(Cc3ccc4c(c3)OCO4)CC2)cc1C`: the activation was inactive: -20.3%. To `O=C(NCc1ccccc1Cl)c1cnc(N2CCOCC2)c2ccccc12` belongs inactive: -14.9%; to `Cc1ccc(-c2cc(-c3coc4ccc(Cl)cc4c3=O)c3c(n2)-c2ccccc2OC3)cc1`, inactive: 0.649%. To `CCN(Cc1ccccc1)Cc1c(O)ccc2c(=O)c(-c3ccc(Cl)cc3)coc12` belongs inactive: -20.8%; to `Cc1ccc(C)c(N2CCN(C(=O)CCNS(=O)(=O)c3ccc4c(c3)CCN4C(=O)C3CC3)CC2)c1`, inactive: 48.7%. To `O=C(C1CCC(Cn2c(=O)c3sccc3n(Cc3ccccc3)c2=O)CC1)N1CCCCC1` (stereo unspecified) belongs inactive: -10.8%; to `Cc1ccc2cccc(NC(=O)c3cccc4c(Cl)cccc34)c2n1`, inactive: -9.81%; to `CCOc1ccc(NC(=O)CCc2nc3cccnc3n2-c2ccccc2)cc1`, inactive: 8.94%. For the compound `COc1ccc(OC)c(NC(=O)CC2C(=O)NCCN2C(=O)C(F)(F)F)c1` (stereo unspecified), the activation was inactive: -0.843%. The result for `Cc1ccc(NC(=O)c2oc3ccccc3c2NC(=O)c2ccc(F)c(F)c2)cc1` reads inactive: -2.02%; that for `COc1ccc(S(=O)(=O)NCCS(=O)(=O)N2CCN(c3ccccc3)CC2)cc1OC`, inactive: -7%.

`COc1ccc2c(c1)c(CC(=O)Nc1ccc(C(C)=O)cc1)c(C)n2C(=O)c1ccc(Cl)cc1`: the activation was inactive: -23.3%. Turning to `COc1ccc(NC(=O)c2oc3ccccc3c2NC(=O)C23CC4CC(CC(C4)C2)C3)c(OC)c1`, the activation was inactive: 0.982%. Consider `O=C(Nc1nc2ccc(Cl)cc2s1)c1cc(=O)c2ccccc2o1`, for which the activation is inactive: 6.33%.

Consider `CCc1cccc(CC)c1NC(=O)C(Cc1ccccc1)NS(=O)(=O)c1cccc2nsnc12` (stereo unspecified), for which the activation was inactive: -32.8%. To `CCc1ccc(NC(=O)CSc2nc3c(oc4ccccc43)c(=O)n2-c2cccc(C)c2)cc1` belongs inactive: -18.9%; to `CCc1cnc2c(c1SCc1ccccc1C)c(=O)n(C)c(=O)n2C`, inactive: -6.65%.

Consider `CC(C)CN(CCCNC(=O)c1cc(=O)[nH]c2ccc(S(=O)(=O)N3CCCC3)cc12)CC(C)C`, for which the activation is inactive: -22.6%. The result for `Cc1ccc(CNC(=O)CCCCCn2c(=O)c3sccc3n(CC(=O)Nc3ccc(C)c(F)c3)c2=O)cc1` reads inactive: 2.52%. The result for `CCN1C(C(=O)c2ccccc2)=C(OC(=O)COc2ccc(OC)cc2)c2ccccc2S1(=O)=O` reads inactive: -71.3%.

With `COc1cccc(C(=O)NC(=NCCc2c[nH]c3ccc(OC)cc23)Nc2nc(C)cc(C)n2)c1`, the activation was inactive: -2.13%. With `CN1CCc2c(sc(NC(=O)CSc3ccc(F)cc3)c2-c2nc3ccccc3s2)C1`, the activation is inactive: -22.7%.

On to `CC(C)CCNS(=O)(=O)c1ccc(N2CCCCS2(=O)=O)cc1`, for which the activation was inactive: 10.3%. On to `CCOc1ccc(C(=O)c2cn(CC(=O)Nc3ccc4c(c3)OCCO4)c3ccc(F)cc3c2=O)cc1`, for which the activation was inactive: 38.2%. The result for `COc1ccc(NC(=O)Cn2c(=O)c3cc(Cl)ccc3n3nncc23)cc1` reads inactive: -19%; that for `CC1(C)OC[C@@H]2O[C@@]3(C(=O)O)OC(C)(C)O[C@H]3[C@@H]2O1`, inactive: 26.1%. To `COC(=O)CN1C(=O)CSc2ccc(S(=O)(=O)Nc3ccc(C(C)=O)cc3)cc21` belongs inactive: -10.3%. The result for `Cc1cccc(C)c1OC(=O)CSc1nnc(CNC(=O)c2ccccc2)o1` reads inactive: -14.8%; that for `CN(C(=O)CSc1nc(C2CCCC2)nc2c1c(=O)n(C)c(=O)n2C)c1ccccc1`, inactive: -21.2%; that for `CC1CCN(C(=O)CSc2nnc(-c3ccccc3)o2)CC1`, inactive: -8.1%. As to `COCCCNC(=O)CSc1nc2cc3c(cc2c(=O)n1CCCCCC(=O)NCc1ccc(OC)cc1)OCO3`, the activation is inactive: -9.21%. To `CC(C)COC(=O)Cn1nnc2sc(-c3ccccc3)cc2c1=O` belongs inactive: 26.2%; to `COc1ccc(-n2nnc(-c3nsc(NC(=O)c4ccc(C)c(C)c4)n3)c2C)cc1Cl`, inactive: 13.1%. To `O=C(CSc1oc(-c2ccccc2)nc1S(=O)(=O)c1ccc(Cl)cc1)NC1CCCCC1` belongs inactive: -6.59%; to `CCCc1nnc(NC(=O)Cc2coc3ccc(C(C)C)cc23)s1`, inactive: -13.8%; to `O=C(CN1CCCN(S(=O)(=O)c2ccc(Br)cc2)CC1)Nc1cccc(C(F)(F)F)c1`, inactive: -2.68%. Regarding `CC1CCN(C(=O)c2ccc3c(c2)N(Cc2ccccc2)C(=O)c2ccccc2S3(=O)=O)CC1`, the activation was inactive: -28.4%.

Regarding `Cc1ccc(NC(=O)c2cnc(SCC(=O)N3CCOCC3)n(C)c2=O)cc1C`, the activation is inactive: -3.29%. The result for `Cc1cc(C)c(NS(=O)(=O)c2cc(-c3onc(C)c3C)ccc2C)c(C)c1` reads inactive: -16.9%; that for `COc1ccccc1-c1noc(-c2ccc(NCc3ccco3)c([N+](=O)[O-])c2)n1`, inactive: -22.9%; that for `O=C(Nc1cccc(C(F)(F)F)c1)c1cc(S(=O)(=O)N2CCCC2)c[nH]1`, inactive: 3.9%. Take `Cc1cccc(N2CCN(C(=O)c3ccc4c(Cl)c5c(nc4c3)CCCC5)CC2C)c1` (stereo unspecified): the activation was inactive: 0.471%. To `COc1ccc(NC(=O)Cn2nnc(C(=O)NCc3ccc4c(c3)OCO4)c2N)cc1` belongs inactive: -9.86%; to `Cc1ccc(CCNC(=O)c2ccc3c(c2)nc2n3CCCCC2)cc1`, inactive: -14%; to `O=C(CN1C(=O)COc2ccc(Cl)cc21)Nc1cccc(F)c1`, inactive: -13%. The result for `COC(=O)CNC(=O)C1CCN(S(=O)(=O)c2cccc3nsnc23)CC1` reads inactive: 1.91%; that for `Cc1ccc(C(=O)c2c(N)c(C(=O)Nc3ccccc3Cl)c3ccccn23)cc1`, inactive: 12.2%; that for `CCOc1ccc(OCC(=O)NCCS(=O)(=O)N2CCN(c3ccccc3F)CC2)cc1`, inactive: -8.56%. Consider `COc1ccc(S(=O)(=O)Nc2ccc(-c3ccc(N4CCCC4)nn3)cc2)cc1F`, for which the activation is inactive: 15.1%. The result for `Cc1sc2ncn(CC(=O)Nc3cccc(C(F)(F)F)c3)c(=O)c2c1S(=O)(=O)N1CCN(C)CC1` reads inactive: 8.98%; that for `CN(c1ccc(F)cc1)S(=O)(=O)N1CCCC(C(=O)NCc2cccc(Br)c2)C1` (stereo unspecified), inactive: -7.82%. As for `Cc1ccccc1Cc1c(C)nc2nc(SCC(=O)N(C)c3ccccc3)nn2c1C`, the activation was inactive: -32.3%. The result for `Cc1c(C(=O)N2CCC(C)CC2)c(S(=O)(=O)NCc2ccc(Cl)cc2)c(C)n1C` reads inactive: -12%; that for `COc1cc2c(Nc3ccc(Br)cc3F)ncnc2cc1OCC1CCN(C)CC1`, inactive: -3.97%.

On to `CC1=C(C(=O)Nc2ccc(C)cc2C)C(c2ccc([N+](=O)[O-])cc2)n2ncc(C(=O)Nc3ccc(F)cc3)c2N1` (stereo unspecified), for which the activation is inactive: -13.7%.

`Cc1ccc(-n2c(=O)c3c(cnn3C)n(CC(=O)Nc3ccc(C)cc3C)c2=O)cc1`: the activation was inactive: -28.1%. To `CC(=O)c1ccc(N2CCN(C(=O)CCC(=O)Nc3ccc4nc(N5CCCCC5)cc(C)c4c3)CC2)cc1` belongs inactive: 18.3%; to `CCN(CC)c1ccc2cc(-c3nc(-c4cccs4)no3)c(=O)oc2c1`, inactive: 8.2%. The result for `COc1ccc(S(=O)(=O)NCCc2csc3nc(-c4cccc(C)c4)nn23)cc1F` reads inactive: 20.4%; that for `CCCCN1C(=O)c2[nH]nc(-c3ccccc3O)c2C1c1ccc(OCc2ccccc2)cc1` (stereo unspecified), inactive: 42.1%. The result for `CC1CCN(S(=O)(=O)c2ccc3c(c2)c(=O)c(C(=O)NCCc2ccccc2)cn3C)CC1` reads inactive: -8.47%; that for `CN(C)CCNC(=O)c1ccc2c(c1)NC(=O)C(CS(=O)(=O)Cc1cccc(Br)c1)N2` (stereo unspecified), inactive: -6.58%; that for `Cc1ccc(S(=O)(=O)N2CCCc3cc(NS(=O)(=O)c4cccc(Cl)c4)ccc32)cc1`, inactive: -11.4%.

For the compound `COc1ccccc1CNC(=O)c1c(O)nc2c(C)cccn2c1=O`, the activation is inactive: -6.03%. The result for `COc1ccc2c(c1)cc1c(=O)n(CC(=O)NC(C)C)nc(C)n12` reads inactive: -3.75%; that for `CC(=O)c1ccc(NC(=O)CSc2nnc3ccc(-c4ccc(Br)cc4)nn23)cc1`, inactive: 0.941%.

As to `COc1ccccc1CNC(=O)CN(C)c1nn2c(=O)cc(C)nc2s1`, the activation was inactive: 1.75%. The result for `CCc1ccc(NC(=O)C2CCCN2S(=O)(=O)c2ccc3c(c2)n(C)c(=O)c(=O)n3C)cc1` (stereo unspecified) reads inactive: -3.76%; that for `COc1ccccc1NC(=O)CCC(=O)N1CC(C)Oc2ccc(C)cc21` (stereo unspecified), inactive: -16.1%; that for `Cc1ccc(Nc2sc(C(=O)c3ccccc3)c(N)c2C(=O)Nc2ccc(Cl)cc2)cc1`, inactive: -85.4%. The result for `COc1cc2c(cc1OC)n(CC(=O)c1cccc(Cl)c1)c(=O)n1nc(CCn3nc(C)cc3C)nc21` reads inactive: -3.6%; that for `CCOCCCNC(=O)c1cc(Sc2cccc(Cl)c2)nc2ccccc12`, inactive: 14.1%. To `COc1ccc(-c2cn3nc(N4CCCC(C(=O)Nc5cccc(OC)c5)C4)sc3n2)cc1` (stereo unspecified) belongs inactive: -10.8%. Take `O=C(CCN1C(=O)c2ccccc2Sc2ncccc21)Nc1ccc(F)cc1F`: the activation is inactive: -13.8%. To `COc1ccc(C2NC(=O)NC(C)=C2C(=O)Nc2ccccc2)cc1OC` (stereo unspecified) belongs inactive: -12.7%.
